Laboratory results published in paper PMC9037475.
These are yes or no findings as the source states them, for the method shown. Binding seen in cells or lysates may run through a third protein. Some binding calls cover weakened binding; strength is not graded here. For part of these data: Tags and fused reporters may be left off the sequences shown.

Chains of the proteins cited; added tags and fusions are not shown.
UniProt Q969H0: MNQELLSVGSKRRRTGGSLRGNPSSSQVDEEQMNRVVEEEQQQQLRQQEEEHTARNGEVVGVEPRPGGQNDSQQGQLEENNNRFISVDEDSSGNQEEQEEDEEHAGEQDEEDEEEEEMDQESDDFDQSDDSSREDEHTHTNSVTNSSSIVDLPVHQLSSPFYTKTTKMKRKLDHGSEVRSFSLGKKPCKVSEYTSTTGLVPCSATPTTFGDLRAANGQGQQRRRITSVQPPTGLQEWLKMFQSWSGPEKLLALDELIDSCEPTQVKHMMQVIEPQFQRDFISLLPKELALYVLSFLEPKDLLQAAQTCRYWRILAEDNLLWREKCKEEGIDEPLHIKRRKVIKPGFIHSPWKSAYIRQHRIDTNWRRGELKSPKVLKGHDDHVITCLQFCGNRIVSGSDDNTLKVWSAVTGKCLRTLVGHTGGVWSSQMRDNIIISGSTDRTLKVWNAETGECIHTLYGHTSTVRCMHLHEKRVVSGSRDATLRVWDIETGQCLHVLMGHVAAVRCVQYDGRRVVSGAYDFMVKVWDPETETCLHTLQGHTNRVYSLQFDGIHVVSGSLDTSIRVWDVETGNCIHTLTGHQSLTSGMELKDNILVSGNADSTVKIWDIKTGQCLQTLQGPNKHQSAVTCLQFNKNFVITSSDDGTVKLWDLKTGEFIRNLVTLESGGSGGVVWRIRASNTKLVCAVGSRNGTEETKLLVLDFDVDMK
UniProt P30281: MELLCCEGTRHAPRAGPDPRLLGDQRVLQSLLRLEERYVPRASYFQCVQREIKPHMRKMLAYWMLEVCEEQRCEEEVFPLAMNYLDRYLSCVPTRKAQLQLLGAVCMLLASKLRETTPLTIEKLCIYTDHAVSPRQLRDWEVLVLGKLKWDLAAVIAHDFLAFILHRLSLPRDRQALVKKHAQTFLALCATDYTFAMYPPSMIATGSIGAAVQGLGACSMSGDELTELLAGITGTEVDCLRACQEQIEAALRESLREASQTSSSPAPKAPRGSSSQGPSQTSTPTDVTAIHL
UniProt P01106: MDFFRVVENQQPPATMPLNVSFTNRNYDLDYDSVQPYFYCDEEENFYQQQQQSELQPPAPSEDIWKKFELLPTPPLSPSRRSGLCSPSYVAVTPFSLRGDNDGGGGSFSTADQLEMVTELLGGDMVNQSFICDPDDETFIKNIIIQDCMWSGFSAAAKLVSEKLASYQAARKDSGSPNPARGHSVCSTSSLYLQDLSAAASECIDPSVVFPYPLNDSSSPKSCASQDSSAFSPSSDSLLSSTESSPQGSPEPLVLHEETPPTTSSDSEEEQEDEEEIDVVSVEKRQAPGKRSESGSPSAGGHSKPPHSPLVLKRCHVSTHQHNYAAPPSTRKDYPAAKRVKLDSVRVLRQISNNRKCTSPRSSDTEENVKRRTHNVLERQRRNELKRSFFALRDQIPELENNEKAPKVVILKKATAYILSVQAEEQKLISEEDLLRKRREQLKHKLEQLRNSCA
UniProt P63208: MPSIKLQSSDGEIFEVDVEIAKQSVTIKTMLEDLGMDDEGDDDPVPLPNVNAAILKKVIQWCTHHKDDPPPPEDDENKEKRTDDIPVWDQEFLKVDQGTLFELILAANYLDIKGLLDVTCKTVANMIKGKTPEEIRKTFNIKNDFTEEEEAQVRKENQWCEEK

How the values were obtained:
[1] = molecular target: T1, endogenous Fbxl8 of U2OS cells (human (endogenous in U2OS)) (UniProt Q96CD0); assay: co-IP; endogenous proteins of U2OS cells, harvested 5 hours after MG132 treatment; anti-Fbxl8 antibody crosslinked to Protein A/G beads; blot for c-myc and cyclin D3
T1 sequence: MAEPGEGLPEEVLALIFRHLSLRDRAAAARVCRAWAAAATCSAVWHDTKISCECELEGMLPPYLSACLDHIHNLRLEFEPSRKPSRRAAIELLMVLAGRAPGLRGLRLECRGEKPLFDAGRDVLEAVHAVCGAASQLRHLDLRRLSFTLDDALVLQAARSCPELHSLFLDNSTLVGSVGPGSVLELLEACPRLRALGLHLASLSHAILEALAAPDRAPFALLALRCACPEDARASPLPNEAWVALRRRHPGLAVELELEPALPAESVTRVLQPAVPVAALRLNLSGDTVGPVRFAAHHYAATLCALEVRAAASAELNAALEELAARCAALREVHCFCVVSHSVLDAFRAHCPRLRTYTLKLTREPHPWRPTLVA

[2] = molecular target: T2, Flag-Fbxl8 (F-box and Leucine Rich Repeat Protein 8), wild type, expressed in U2OS cells (UniProt Q96CD0); assay: co-IP; U2OS cells transfected with Flag-tagged F-box proteins, MG132 (10 μM) for 6 hours; EBC buffer; precipitated with anti-Flag beads; blot for endogenous c-myc
T2 sequence: T1 sequence

Flag-Fbxo31 = molecular target: T3, Flag-Fbxo31 (UniProt Q5XUX0); assay: as above
T3 sequence: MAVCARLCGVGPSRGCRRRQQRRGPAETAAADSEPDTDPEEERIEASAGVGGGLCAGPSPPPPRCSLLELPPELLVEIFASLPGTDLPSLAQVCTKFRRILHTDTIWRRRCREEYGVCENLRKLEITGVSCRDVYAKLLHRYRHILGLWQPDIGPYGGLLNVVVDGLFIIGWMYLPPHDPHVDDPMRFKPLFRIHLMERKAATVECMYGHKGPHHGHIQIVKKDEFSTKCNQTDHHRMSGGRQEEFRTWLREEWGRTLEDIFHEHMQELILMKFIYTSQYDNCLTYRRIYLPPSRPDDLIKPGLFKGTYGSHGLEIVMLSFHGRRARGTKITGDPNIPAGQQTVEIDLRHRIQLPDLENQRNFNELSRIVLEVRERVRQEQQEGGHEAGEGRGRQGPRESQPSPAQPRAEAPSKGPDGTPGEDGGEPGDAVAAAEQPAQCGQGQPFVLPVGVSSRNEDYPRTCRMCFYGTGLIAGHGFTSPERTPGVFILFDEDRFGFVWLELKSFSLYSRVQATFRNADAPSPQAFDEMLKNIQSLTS

Flag-Fbxw7 = Flag-Fbxw7 (UniProt Q969H0); assay: as above
[3] = molecular target: T4, Flag-Fbxl8 from Sf9 cells (F-box protein of purified SCF^Fbxl8) (UniProt Q96CD0); assay: co-IP; Sf9 cells co-infected with Flag-Fbxl8 or Flag-ΔF and Skp1, Cul1, Rbx1; Tween 20 lysis buffer; anti-Flag beads, washed 5 times; Coomassie stain
T4 sequence: T1 sequence

Row | binding [1] | binding [2] | binding (Flag-Fbxo31) | binding (Flag-Fbxw7) | binding [3] | Substance
1 | binds | – | – | – | – | endogenous cyclin D3 of U2OS cells (from UniProt P30281 1-292)
2 | binds | binds | no binding | binds | – | endogenous c-myc of U2OS cells (from UniProt P01106 1-454)
3 | – | – | – | – | binds | Skp1 (SCF component co-expressed in Sf9 cells) (from UniProt P63208 1-163)
